PubChem BioAssay AID1347120 (National Center for Advancing Translational Sciences (NCATS), 2019)
Screen size: about 390,000 compounds; about 930 (0.24%) were called active. The inconclusive results got no clear call from the source; some entries with a clear call stand among them for comparison. Calls follow the shape of the dose curve; as a rule, active = well fitted activation curve with a large enough effect; inconclusive = small, poorly fitted or top-dose-only effect; inactive = no such curve, though single readings can be large or run the other way. Potencies of inconclusive entries are doubtful fits and often do not repeat.
Potency is read from the fitted curve at half-maximal effect; tags tell the direction and shape of the fitted curve.

Test: qHTS for Suppressors of FUS Proteinopathy: Primary screen using FUS-linked yeast assay; also: nearly all actives have a fitted effect of over 55% in size;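 as to growth rescue (activation): plate controls were DMSO vehicle for no effect and reference control for full effect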
Settings: S. cerevisiae FUS-expressing, OD600, 24 h; Potency: growth rescue; growth rescue (activation): at 76.6 µM (top of the series)
Summary of the method: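 Toxicity suppression screen in FUS-yeast. Cells induced with 2% galactose, starting OD 0.005, treated 24hr at 30C with compounds at multiple final concentrations; growth by OD600.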
For `CCCCn1c(-c2cccc3ccccc23)nc2cc3[nH]c(=O)c(C(C)C)nc3cc21`, the Potency was inconclusive: 28.2 µM [activator, single point].
In the case of `Cc1c(C(=O)Nc2cc(S(=O)(=O)N3CCOCC3)ccc2N2CCN(C)CC2)oc2ccccc12`, the Potency is reported as “inactive”.
In the case of `FC(F)(F)c1nnc2c(Sc3ccccn3)nc3ccccc3n12`, the Potency is reported as “inactive”.
With `O=C(Cc1ccccc1F)N1CCC(c2nc3c(nnn3Cc3cccc(Cl)c3)c(=O)[nH]2)CC1` the Potency was inconclusive: 39.8 µM [activator, single point].
With `CCc1ccc(N2CC(C(=O)N3CCN(c4ccccn4)CC3)CC2=O)cc1` (configuration not stated) the Potency was “inactive”.
In the case of `COc1ccc(-n2cc(-c3ccccc3)c3c(NCCc4ccc(OC)c(OC)c4)ncnc32)cc1`, the Potency is reported as inconclusive: 20 µM [activator, single point].
For `CCN1CCN(c2cc3c(cc2F)c(=O)c(S(=O)(=O)c2cc(C)cc(C)c2)cn3CC)CC1`, the Potency was “inactive”.
In the case of `CCOC(=O)c1ccc(NC(=O)c2c(NCc3cc(OC)c(OC)cc3OC)sc3c2CCCC3)cc1`, the Potency is reported as inconclusive: 31.6 µM [activator, single point].
With `COC(=O)[C@]12C[C@H](CC(=O)NCc3cccc4ccccc34)C(=O)N(Cc3ccco3)C1=C[C@H](C(C)C)O[C@@H]2C1CC1` the Potency was inconclusive: 28.2 µM [activator, partial curve, poor fit].
With `CCOC(=O)c1c(C)c(C)n(Cc2cccc(OC)c2OC)c1C` the Potency was “inactive”.
For `COc1cccc(CNCCSc2nnnn2C)c1OCc1ccc(Cl)cc1`, the Potency was “inactive”.
For `Cc1ccc(S(=O)(=O)N2C[C@@]3(O)Cn4c(=O)ccc(=O)n4C[C@@]3(OC(=O)NCC3CCCCC3)C2)cc1`, the Potency was “inactive”.
In the case of `CC(C)c1ccc(N(CC(=O)Nc2ccc(S(=O)(=O)N3CCOCC3)cc2)S(C)(=O)=O)cc1`, the Potency is reported as inconclusive: 28.2 µM [activator, single point].
For `CC(C)c1ccc(NC(=O)C2CCCN(S(=O)(=O)c3ccc4[nH]c(=O)ccc4c3)C2)cc1` (configuration not stated), the Potency was “inactive”.
For `COC(=O)[C@]12CCCCC=C1N(Cc1cccc3ccccc13)C(=O)[C@H](CC(=O)NCc1cccs1)C2`, the Potency was inconclusive: 39.8 µM [activator, single point].
With `COc1ccc(CNC(=O)[C@@H]2CC=C[C@@H]3CCN(Cc4ccc(Cl)c(Cl)c4)C(=O)[C@@H]32)cc1` the Potency was inconclusive: 28.2 µM [activator, partial curve].
In the case of `O=C(CCc1nc2sc3c(c2c(=O)[nH]1)CCCC3)Nc1cccc(Cl)c1`, the growth rescue (activation) is reported as inconclusive: -49.7% [activator].
In the case of `CC(C)(C)OC(=O)NCCCC[C@H](NC(=O)c1nc[nH]c1C(=O)NCc1ccc(CNC(=O)OC(C)(C)C)cc1)C(=O)OC(C)(C)C`, the Potency is reported as inconclusive: 15.8 µM [activator, partial curve].
For `Cc1ccc(OCC(=O)Nc2ccc(S(=O)(=O)N(Cc3ccccc3)c3ccccc3)cc2)cc1`, the Potency was “inactive”.
With `COc1ccccc1/C=C(/C(=O)OCC(=O)Nc1ccccc1C(C)C)c1ccccc1` the Potency was inconclusive: 14.1 µM [activator, partial curve, poor fit].
With `CCCCN1C(=O)/C(=C/C=C2/CC(C)(C)CN2C)SC1=S` the Potency was “inactive”.
In the case of `COCCNC(=O)Cc1c(C)c2c(cc(C)c3c(C(C)(C)C)coc32)oc1=O`, the Potency is reported as inconclusive: 35.5 µM [activator, single point].
With `Cc1ccc(S(=O)(=O)C(CNC(=O)c2ccccc2F)c2cccs2)cc1` (configuration not stated) the Potency was “inactive”.
For `Cc1cccc(CSc2nc3c(c(=O)[nH]2)C(c2cccc(O)c2)CC(=O)N3)c1` (configuration not stated), the growth rescue (activation) was inconclusive: -50.9% [activator].
With `S=c1[nH]nc(-c2cc(-c3ccccc3)n[nH]2)n1/N=C/c1c(Cl)cccc1Cl` the Potency was inconclusive: 31.6 µM [activator, partial curve].
For `COc1ccc(-n2c(SCC(=O)Nc3ccc(S(=O)(=O)Nc4nccs4)cc3)nnc2-c2ccccc2)cc1`, the Potency was active: 10 µM.
In the case of `COc1ccccc1C(=O)N1CCN(c2nc3cc(C)cc(C)c3cc2C#N)CC1`, the Potency is reported as “inactive”.
In the case of `Cc1cccc(C)c1NC(=O)CN1CCN(C(=O)c2ccc(OCc3cn4ccccc4n3)cc2)CC1`, the Potency is reported as inconclusive: 11.2 µM [activator, partial curve, poor fit].
For `COc1ccccc1C(=O)Nc1ccc(S(=O)(=O)Nc2cnc3ccccc3n2)cc1`, the Potency was inconclusive: 8.91 µM [activator, partial curve, poor fit].
With `C=CCOC(=O)C1=C[C@H](c2ccc(C(F)(F)F)cc2)C[C@H](OCCCCO)O1` the Potency was inconclusive: 50.1 µM [activator, single point].
For `CCCCNC(=O)C[C@H]1C[C@@]2(C(=O)OC)C(=C[C@H](C(C)(C)C)O[C@@H]2C)N(Cc2ccc(Cl)cc2Cl)C1=O`, the Potency was inconclusive: 17.8 µM [activator, partial curve, poor fit].
For `CCN1C(=O)C(CC(=O)Nc2ccc(F)cc2)N(Cc2ccco2)C1=S` (configuration not stated), the Potency was “inactive”.
In the case of `O=C(NC(C(=O)N/N=C/c1cccc2ccccc12)c1n[nH]c(=O)c2ccccc12)c1ccccc1` (configuration not stated), the Potency is reported as inconclusive: 44.7 µM [activator, single point].
For `COc1ccc(OC)c(NC(=O)CCNS(=O)(=O)c2cccs2)c1`, the Potency was inconclusive: 50.1 µM [activator, single point].
With `Cc1cc(C)c(S(=O)(=O)c2ccccc2)c(OC(=O)c2cc(F)c(F)cc2Cl)n1` the Potency was “inactive”.
With `CCc1nc2c(OCC(=O)c3ccc(Cl)cc3Cl)cccn2c1N(C)C(=O)c1cccs1` the Potency was inconclusive: 8.91 µM [activator, partial curve].
In the case of `Cc1cc(C)cc(NS(=O)(=O)c2ccc3c(c2)CCCN3C(=O)C2CCC2)c1`, the Potency is reported as inconclusive: 31.6 µM [activator, partial curve, poor fit].
In the case of `O=C(Nc1ccccc1Cl)c1ccn[nH]1`, the Potency is reported as inconclusive: 11.2 µM [activator, single point].
For `O=C(CSc1nnc(COc2ccc(Cl)cc2)n1Cc1ccco1)Nc1cccc2ccccc12`, the Potency was inconclusive: 15.8 µM [activator, partial curve, poor fit].
In the case of `COc1ccc(NC(=O)COC(=O)/C=C/c2cccs2)c(OC)c1`, the Potency is reported as “inactive”.
In the case of `O=C(OCc1ccccc1)[C@H](Cc1ccccc1)NC(=O)[C@@H]1CC=C[C@@H]2CCN(C3CCCCC3)C(=O)[C@@H]21`, the Potency is reported as inconclusive: 14.1 µM [activator, partial curve, poor fit].
For `COc1ccccc1NS(=O)(=O)c1cccc(C(=O)N/N=C/c2c(CO)cnc(C)c2O)c1`, the Potency was inconclusive: 17.8 µM [activator, partial curve].
With `O=C(CSc1nccn1Cc1ccc(Cl)cc1)Nc1ccc2c(c1)OCCO2` the Potency was “inactive”.
With `COc1cccc(-c2cc(C(=O)Nc3ccc(N(C)C(C)=O)cc3)c3cc(Br)ccc3n2)c1` the Potency was inconclusive: 50.1 µM [activator, single point].
In the case of `O=C(NC1CCCCN(Cc2cccc(C(F)(F)F)c2)C1=O)c1ccc(F)c(F)c1` (configuration not stated), the Potency is reported as “inactive”.
With `Cc1ccc2nc(-c3ccc(NC(=O)CSc4nnc(-c5ccccc5)n4Cc4ccco4)cc3)sc2c1` the Potency was inconclusive: 35.5 µM [activator, single point].
For `CC1(C)Cc2c(C#N)c(SCc3nc4ccccc4[nH]3)nc(N3CCOCC3)c2CO1`, the Potency was inconclusive: 22.4 µM [activator, partial curve, poor fit].
For `Cc1nc2ccc([N+](=O)[O-])cc2c(=O)n1Cc1ccc(Cl)cc1`, the Potency was “inactive”.
With `O=C(NC1CCSc2ccccc21)c1cc([N+](=O)[O-])ccc1N1CCOCC1` (configuration not stated) the Potency was “inactive”.
In the case of `Cc1ccc(-c2c(C)sc3nc[nH]c(=O)c23)cc1C`, the Potency is reported as “inactive”.
For `Cc1cc(Nc2cccc(C(F)(F)F)c2)nc2ccc(NC(=O)c3ccc(=O)[nH]c3)cc12`, the Potency was inconclusive: 35.5 µM [activator, single point].
For `COc1ccc(-c2ccc(CN3C(C(C)C)C(=O)N(Cc4cn(Cc5ccco5)nn4)CCS3(=O)=O)cc2)cc1` (configuration not stated), the Potency was inconclusive: 12.6 µM [activator, partial curve, poor fit].
For `O=C(N/N=C/c1ccccn1)c1sc2ccccc2c1Cl`, the Potency was “inactive”.
For `CN(C)c1ccc(P(=O)(Nc2ccccc2)N2CCOCC2)c(NC(=O)c2cccs2)c1` (configuration not stated), the Potency was inconclusive: 12.6 µM [activator, partial curve].
In the case of `CCOc1c(Nc2ccc(C(C)C)cc2)c(=O)c1=O`, the Potency is reported as inconclusive: 50.1 µM [activator, single point].
In the case of `CC(=O)Nc1ccccc1`, the Potency is reported as “inactive”.
In the case of `COC(=O)[C@]12C[C@H](CC(=O)NCCCN3CCCC3=O)C(=O)N(Cc3ccc(Cl)cc3Cl)C1=C[C@H](C(C)(C)C)O[C@@H]2C`, the Potency is reported as inconclusive: 0.251 µM [activator, full curve, poor fit].
With `CCOC(=O)c1csc(NC(=O)c2ccc(S(=O)(=O)N3CCCC3)cc2)n1` the growth rescue (activation) was inconclusive: 46.9% [activator].
For `Cc1ccc(NS(=O)(=O)c2ccc3c(c2)CCCN3C(=O)C2CCC2)cc1Cl`, the Potency was inconclusive: 28.2 µM [activator, partial curve, poor fit].
In the case of `Cc1ccc(S(=O)(=O)N2CCN(C(=O)CN3C(=O)NC(C)(c4ccc(Cl)cc4)C3=O)CC2)c(C)c1` (configuration not stated), the Potency is reported as inconclusive: 28.2 µM [activator, single point].
In the case of `COC(=O)c1c(C)oc2ccc(N(C(=O)c3ccncc3)S(=O)(=O)c3ccc(C)cc3)cc12`, the Potency is reported as inconclusive: 25.1 µM [activator, single point].
In the case of `CC(=O)Nc1ccc(/C=N/NC(=O)c2cccc(S(=O)(=O)N3CCOCC3)c2)cc1`, the Potency is reported as inconclusive: 2.82 µM [activator, full curve, poor fit].
